From patent publication US12616203B2, “Use of 3-isoxazolidinones compounds as selective herbicides” (FMC Corporation, priority 2014, dated 2026)

System: weeds; Oilseed rape
Experiment: Ex12 PRE greenhouse
Format: in vivo
Settings: 28 DAT, rate in the words
Protocol: The tested weeds include: wild buckwheat (Polygonum convolvulus, POLCO), velvetleaf (Abutilon theophrasti, ABUTH), cheat (Bromus secalinus, BROSE), wild oat (Avena fatua, AVEFA), radish (Raphanus sativus, RAPSN), corn poppy (Papaver rhoeas, PAPRH), yellow foxtail (Setaria pumila, SETLU), Italian ryegrass (Lolium perenne ssp. multiflorum, LOLMU). The tested crop was Oilseed rape.
This greenhouse study was conducted to assess the preemergence (PRE) weed control and oilseed rape tolerance with 2,4 DC (CS 36.7%) and dimethenamid-P (Outlook®, 63.9%) tank-mix combinations.
Metazachlor (Butisan, 43.1%) plus dimethenamid-P applied as tank mix at 500 g each was applied as commercial standard. Treatments were replicated 3 times and flats were watered after planting but before the treatment and then lightly watered after treatment application. Thereafter flats were watered and fertilized routinely.

| Compound | weed control / crop safety in words |
| --- | --- |
| CC1(C)CON(Cc2ccc(Cl)cc2Cl)C1=O [2,4-DC, 2-(2,4-dichlorophenyl)methyl-4,4-dimethyl-3-isoxazolidinone] | alone at all rates did not control any weed species |
| COC[C@H](C)N(C(=O)CCl)c1c(C)csc1C [Dimethenamid-P, dimethenamid-P, reference compound] | alone at all three rates controlled cheat, corn poppy, yellow foxtail, and Italian ryegrass |
